# In PMC4336329 (PLoS ONE, 2015):
# About 2,200 (0.71%) of roughly 310,000 compounds showed an effect of 50% or more. Effects have a minus sign here. The list shows a part of the results.
# Biological target: human ether-à-go-go-related gene (hERG) potassium channel (human, UniProt Q12809)
# Experiment: primary screen, population patch clamp on CHO cells stably expressing hERG
# Sequence of human ether-à-go-go-related gene (hERG) potassium channel (Q12809 whole entry, looked up): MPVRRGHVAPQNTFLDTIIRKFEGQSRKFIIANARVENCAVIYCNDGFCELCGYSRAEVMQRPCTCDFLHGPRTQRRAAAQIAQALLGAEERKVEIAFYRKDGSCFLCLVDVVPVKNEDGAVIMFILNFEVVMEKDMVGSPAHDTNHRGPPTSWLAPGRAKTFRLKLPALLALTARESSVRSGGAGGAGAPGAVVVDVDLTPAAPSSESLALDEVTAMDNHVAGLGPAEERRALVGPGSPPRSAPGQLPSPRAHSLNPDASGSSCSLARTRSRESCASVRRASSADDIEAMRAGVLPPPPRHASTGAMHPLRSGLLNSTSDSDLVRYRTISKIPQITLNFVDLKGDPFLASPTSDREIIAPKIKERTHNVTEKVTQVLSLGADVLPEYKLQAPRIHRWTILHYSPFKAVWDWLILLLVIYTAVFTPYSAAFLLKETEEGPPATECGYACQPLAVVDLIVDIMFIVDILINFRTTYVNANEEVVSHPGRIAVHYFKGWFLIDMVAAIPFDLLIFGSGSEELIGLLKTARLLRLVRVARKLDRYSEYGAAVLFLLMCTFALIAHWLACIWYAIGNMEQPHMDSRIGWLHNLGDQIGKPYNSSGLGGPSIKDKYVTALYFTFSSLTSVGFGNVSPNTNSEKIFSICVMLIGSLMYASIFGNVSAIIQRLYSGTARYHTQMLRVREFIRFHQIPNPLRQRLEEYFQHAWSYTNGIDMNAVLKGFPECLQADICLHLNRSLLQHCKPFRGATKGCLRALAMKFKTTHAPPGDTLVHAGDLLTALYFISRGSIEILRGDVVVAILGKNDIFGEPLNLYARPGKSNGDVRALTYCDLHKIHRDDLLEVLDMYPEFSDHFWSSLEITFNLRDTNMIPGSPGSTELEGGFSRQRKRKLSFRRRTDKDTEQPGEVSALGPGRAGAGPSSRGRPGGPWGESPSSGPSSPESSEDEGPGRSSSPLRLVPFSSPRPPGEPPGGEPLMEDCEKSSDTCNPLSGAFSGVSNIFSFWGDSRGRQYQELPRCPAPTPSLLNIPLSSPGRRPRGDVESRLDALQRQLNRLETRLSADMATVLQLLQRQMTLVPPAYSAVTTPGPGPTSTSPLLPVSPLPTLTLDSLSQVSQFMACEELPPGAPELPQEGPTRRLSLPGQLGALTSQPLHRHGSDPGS
row,SMILES,"hERG current change (%, negative = inhibition) at 1uM"
1,Br.COc1ccc(-c2nc3n(c2C)CCC3)cc1,-2.17%
2,CC(=O)c1cccc(N(C(=O)CS(=O)CC(=O)Nc2ccc(F)cc2)C(C(=O)NC2CCCCC2)c2ccc(C)o2)c1 (stereo not shown),9.67%
3,N#Cc1ccc(C(=O)NCC2CCCCC2)cc1,2.28%
4,O=c1oc2ccccc2c(O)c1C(c1ccccn1)c1c(O)c2ccccc2oc1=O,17.3%
5,O=C(NCc1cccnc1)c1cccc(S(=O)(=O)N2CCOCC2)c1,14.4%
6,N#CC(C#N)=C(Nc1ccc(F)cc1)SCc1cccc(F)c1,3.39%
7,CC(=O)c1cccc(NC(=O)CCCN(C)S(=O)(=O)c2ccc(F)cc2)c1,15.1%
8,CCc1ccc(C(=O)COC(=O)CNC(=O)c2ccc(Br)o2)cc1,-10.3%
9,CCCNC(=O)CSc1nc(COc2ccccc2)nc2ccccc12,4.6%
10,O=C(Nc1ccc(F)cc1)C1CC(=O)N(Cc2ccco2)C1 (stereo not shown),7.85%
11,O=C1c2sc3nc4n(c(=O)c3c2CCC1Br)CCCCC4 (stereo not shown),8.13%
12,Cc1ccc(OCC(=O)Nc2sc3c(c2C#N)CCC3)cc1C,4.44%
13,COCc1nnc(NC(=O)c2ccc(S(=O)(=O)N(C)c3ccccc3)cc2)o1,14.1%
14,O=C(NCC(=O)N(CCc1ccccc1)C(C(=O)NC1CCCCC1)c1ccncc1)c1ccco1 (stereo not shown),-24.1%
15,C/C(=N\NC(=O)C(=O)Nc1cc(C)ccc1C)c1ccncc1,8.67%
16,CCc1ccc(N(C(=O)c2ccco2)C(C(=O)NC2CCCC2)c2ccncc2)cc1 (stereo not shown),3.89%
17,COc1cc(OC)nc(N/N=C(\c2ccccc2)c2ccncc2)n1,-0.121%
18,COC(=O)c1ccc(NC(=O)Cn2c([N+](=O)[O-])cnc2C)cc1,5.29%
19,Cc1ccc2nc(-c3ccc(N4C(=NC(=O)CCC(=O)O)SC5CS(=O)(=O)CC54)cc3)sc2c1 (stereo not shown),2.33%
20,c1ccc(C2CCC3(CC2)Oc2ccccc2C2CC(c4cccnc4)=NN23)cc1 (stereo not shown),6.45%
21,COc1cc2c(cc1NC(=O)C(C)NCc1ccccc1)oc1ccccc12 (stereo not shown),8.93%
22,O=C(OCC#CCSc1nnc(-c2ccccc2)o1)c1ccco1,12.6%
23,COC(=O)[C@]1(CC(C)C)N[C@H](c2ccc(SC3CCCCC3)c(OC)c2)[C@@H]2C(=O)N(C)C(=O)[C@@H]21.O=C(O)C(F)(F)F,7.7%
24,CSc1nc2ccccc2n1CC(=O)Nc1c(C)n(C)n(-c2ccccc2)c1=O,9.92%
25,CCOc1ccc(N2C(=O)c3cccnc3C2=O)cc1,12.1%
26,CC(C)[C@H]1COCCS(=O)(=O)N1Cc1ccccc1F,8.68%
27,CCOC(=O)Cn1nc(-c2ccc(F)cc2)oc1=O,0.298%
28,CCOC(=O)c1c(C)nc2c(c1-c1ccc(OC)cc1)C(=O)CC(C)(C)C2,7.75%

row,SMILES,"hERG current change (%, negative = inhibition) at 1uM"
1,NC(=S)Nc1cccc(Cl)c1,14.2%
2,Cc1nc(SCc2ccccc2)nc2c1CCC2,10.1%
3,CN1CC(C(=O)c2ccccc2)C(C(=O)c2ccccc2)C1 (stereo not shown),0.868%
4,COC(=O)c1cc(NC(=O)c2cccc([N+](=O)[O-])c2C)ccc1Cl,-5.92%
5,CS(=O)(=O)N1CCN(c2ccc(NC(=O)CSc3ccc(Cl)cc3)cc2)CC1,6.23%
6,NC(=O)c1ccsc1NC(=O)c1cc(=O)c2ccccc2o1,0.155%
7,C/C=C/C=C/[C@H]1Cc2cc(O)cc(O)c2O1,8.01%
8,O=C(N/N=C/c1cccnc1)c1cc(C2CC2)nc2ccccc12,14.7%
9,O=C(NC1CCCCCCC1)c1ccccc1-c1ccccc1,-0.961%
10,C[C@@H]1CN=C2N(CCNC(=O)CCC3CCCCC3)[C@H](Cc3ccc(O)cc3)CN21,7.9%
11,O=[n+]1cc(-c2ccc(Cl)cc2)n([O-])c2c1CCC2,14.8%
12,O=C(CCNC(=O)C1CCN(S(=O)(=O)c2ccc(F)cc2)CC1)NCc1ccncc1,7.8%
13,CCCOc1ccc(C2C(C(=O)c3ccc(C)o3)=C(O)C(=O)N2CCN2CCOCC2)cc1OC (stereo not shown),10.1%
14,CC(=O)N1N=C(c2cccc(NS(C)(=O)=O)c2)CC1c1cccs1 (stereo not shown),-3.53%
15,Cc1sc2ncn(CC(=O)NCCCC(=O)N3CCN(c4ccccc4F)CC3)c(=O)c2c1C,10.4%
16,Cc1nc(-c2cnn(-c3ccccc3)c2)c2cc(C)oc2n1,10.3%
17,CN1CCCc2cc(C=O)ccc21,16%
18,CC(C)[C@@H](N)C(=O)N/N=C/c1ccc2nccnc2c1.Cl,13.5%
19,CCCCN(C(=O)C1CCN(C(=O)c2ccccc2C)CC1)c1c(N)n(CCCC)c(=O)[nH]c1=O,13%
20,COc1ccc(C2=NN(Cc3ccccc3)C3C(=O)NC(=O)C23)cc1 (stereo not shown),8.42%
21,CCCC(=O)O[C@]1(C(=O)COC(C)=O)CC[C@H]2[C@@H]3C[C@H](F)C4=CC(=O)C=C[C@]4(C)[C@@]3(F)[C@@H](O)C[C@@]21C,9.48%
22,CCN(CC)S(=O)(=O)c1cccc(C(=O)NC(C(=O)Nc2nnc(C3CC3)s2)C(C)C)c1 (stereo not shown),10.1%
23,c1coc(CNC2C3CC4CC(C3)CC2C4)c1 (stereo not shown),10.6%
24,COC(=O)c1sc2ncccc2c1OCc1ccccc1Cl,-14.8%
25,CC(=C1C(=O)c2ccccc2C1=O)N1CCN(CCN=Cc2c(O)n(C)c(=O)n(C)c2=O)CC1,9.9%
26,Oc1ccccc1/C=N/[n+]1ccccc1.[I-],14.5%
27,CCOC(=O)c1ccc(NC(=S)N2CCN(C(=O)C3CCCO3)CC2)cc1 (stereo not shown),13.8%
